The source gives no read counts; variants with many changes may rest on few reads.
B1: OR4K15 (parent)
chain: GUUAACGGUCAUAGGCCAUGGAAACUAGGAGCACCAUUUCGCUGCCAGUGAAGAAAUGAACAAAGAAAAUCUGGGCCAGGCAGGCAUCAAAAGAAAUAGUCUUGCGCUCAACCAGAAAGUCUGUAAUCAUUUUAAGGGUA

Variants of: B1
Experiment: self-cleavage, relative activity (ratio to wild type); higher = more cleavage; in vitro, sequencing; the parent is a self-cleaving ribozyme

Variant	self-cleavage
A11U A22G A59U A117G	1.02
U12C A22G A59G U87C	1.05
A11G U19A A56G A90U U122A	1.47
A11G U57C A86G A96G	1.18
A11U A24G U37C A64C A78G	0.23
A11C A117U U120A	1.22
A11U A22G A111G A126G	0.02
A11G G14A A52G A126G	0.33
A11G A27G A62U	0.98
U12A C16U A22G A64G U87C	1.34
A11G G31C A110U	1.07
A11G A23G A56G A111G U132C	0.03
A11G A54U A86G	1.05
U12C A18U U49C U57A A89G	1.18
A11U U103C A135U	0.9
A11U A22G A60G A78U A86G U100C	0.51
A11G A52G A89G A95G A114G	0.68
A11G A86C U120C A134G	0.09
A11G A51G U133C	0.98
A11G A33U A95G	0.98
A11U G41C A62G A67G A117U	0.61
U12A A54G A56G U87C	0.48
A11G A22G G41U A63G U87C	0.82
A11G A54U A118G U130A	0.89

Variant	self-cleavage
A11G A64G U103C	0.75
U12A A13G A47G A52G A125U A126G	0.16
A11G U49A A68G U72A	0.37
A11G A89G A134G	0.96
A11G A78G A116G	0.14
C10U U49C A60U A89U	1.17
A11G A67G U130G	1.02
A11G A22G U43A U122C	1.06
U12A A23G A114G A118U	0.13
A11G A51G U87C	1.56
A11G A62G A96G	1.13
A11G A51G A91G A114U U127C	0.02
C10U U43A G84A	0.88
A11U A22G U131C	1.18
A11G U12C U70C U87C A110G A114U	0.05
A11G A92G A116G	0
A11G U102A A117G U127C	0.22
A11C U100A U131C U132C	0.66
A11G U39A U72A U124C	0.09
U12A A47G A63G A116U	0.54
U12A U43A A63G A69G	1.17
A11G A24C A52G	1.36
A11U A67G A92G U102C	0.57
A11U A18G A52U A68G A111G	0.1

Variant	self-cleavage
A11G A36G A95G	1.73
A11U A55G G104A A116G U132C	0.02
A11G A54G A82G U120A	0.27
A11U A56G U127C	1.02
A11U A18U A22G U43C	1
A11U U38C A82G A89G	0.7
U12A U43A U102C	1.44
A11G A47U A51G A67G A110G	0.09
A11G C16G A18G A86G	0.51
A11G A51G U103C	1.28
A11U A24G A30G A68G A82G	0.93
A11G A22U A111G U127C	0.04
C10U A23G U70C U108A	0.06
A11G A59G U122C	0.55
A11G U43C C46U A89G A117C	0.17
A11G A33U A36G A67G U132C	0.87
A11U A82G U102A U124C	0.41
A11C U12G A22G A92G U108C U131G	0
C10U A69G U70C A78G A94G	0.11
A11G A52U A118G	0.59
A11U U19C A60C	0.86
A11U A86G A111G A140C	0.02
A11U A30U U87C A116G A117G A125G U132C	0.07
A11G A82U U130C	0.18

Variant	self-cleavage
A11G U26A U72A U103G A110G	0.05
A11G A59U A90G U127C	0.46
C10U A51U U103C C128U	0.65
A11G A18G G74C A135G	0.44
A11G G58A A86G A114C	0.05
A11G U39C G44C A60G A67G G93A	0.8
A11U A52G U108C	0.07
A11C A23G A62G	0.69
A11G A62G U72C A96G	0.18
A11G U37C A59G	1
A11G U87C A117G	0.94
A11G U49C A62G A94G U97C U122C A126G	0.37
A11G A23G A62G A66G U87A A111G U120C U131C	0
A11G A54G A96G	1.41
A11G A18G A52U U132C	0.44
A11U U70C A94G A129U	0.08
A11U A110G U124C	0.06
A11G U43C A86G A90G	0.92
A11G A62G A94G A118G	1.11
A11G A18G A66U U124A U132A	0.26
A11G U19C A63G U108C G119A	0.02
U12A A62G U102C	1.84
A11G U122C A135U	1.03
A11G U122C A135G	1.09

Variant	self-cleavage
A11G A55G U124C	1.22
U12A A33G A59G	0.5
A11G A82U A94G A98G A110U	0.03
A11G A27G A33G A116G	0.21
A11G A63G A64C A89G U103G U122A A125G	0.01
A11G A68G U130C	0.75
A11G A47G A56G A125G A135U	0.37
A11U U57C A95G A118G A126G U133C	0.86
A11C A52G U100C A125G	2.14
A11U A117G U130C	1.34
A11G A24G A33G A55G A60U A63G A96G U132C	0.7
A11G A60G A95G	1.15
A11U A68G U97C U102C U127C	1.59
A11G U39A A92U A111G A117G U130C	0.01
C10U A33U U43C U49C A86G	0.37
U12A A55U A66C U120C A134G	0.93
C10U G41U A51G A54G A55G A59U U70C	0.09
C10U U57C G65U A90G A116G	0.27
U12A A47G A55G U108C U122A	0.04
A11U A30G A125G	0.42
A11G U39A A54G	0.76
U12A A30G U37C	0.6
A11G A60U A62U U108C	0.04
A11U A13U U19C A47U	1.34

Variant	self-cleavage
A11G A47U A140G	0.99
A11U A22G A66C A86G A117G	1.12
A11C A18G A69G	1.45
A11G A22U A90G	0.77
A11U G29A U108C	0.01
U12C A22G A47U U70C	0.81
A11U G21A U103C	1.11
A11C A56G A118G	1.39
A11G A33U A56G A96U A135G	1.54
A11G A62G A96G A140C	0.61
A11G G65U U130C	0.81
A11G A78U A90G U108C	0.04
A11G G48U A55G A86G A95G	1
A11G A56C A60G	0.59
A11C U38C A59G A67U	1.51
A11C A90G U103A	0.1
U12A U57C A86C A92U	1.03
U12A G29A U49A A68G	1.83
U12A A23G U38C U100G A110C	0.55
A11G A24G A55G A64U A110U	2.26
A11G A18G A51G U132C A135G	0.51
A11U A22U A59G C85U	0.37
C10U A62G U131C	0.92
A11U A22U U120C	1.3

Variant	self-cleavage
A11G A52C A126G	1.19
A11G A30U A51G A66G	0.88
A11G U37G U43C U87C A118G U127G	1.36
A11G A66G A82G	0.18
A11U C42U U108C A126G	0
A11U A33G U49A U57C G79A A129G	0.03
A11U U43A A55G U57C A63G U97C U100C U127C U132C	1.65
A11G A47U A116G	0.48
A11U U49G G106A A111G A118G	0
U12A A67G U87C A92G U122C U131C	0.54
A11U A51G A60U	1.67
A11C A125C U132C	1.1
A11U G74A A116G	0.01
A11G A60U A86U U87C U108C A114U	0.01
A11G A51G A52G	1.22
A11U A36G U38A A67G	1.09
U12A U87C U127C	1.38
A11G A92G A95G A98G G138A	1.11
A11G U49C A69G C85U U100C	1.32
A11G U37C G75A A82G C85U A94U U130C U131C	0.1
A11U A24G A51G A62C A125G	0.58
A11G A18G A78G	0.14
A11C U37C A82G A116G	0.13
